Measurements as given in PubChem BioAssay AID1476 (National Center for Advancing Translational Sciences (NCATS), 2009).
Where “and” joins values, the source holds several entries; their conditions need not be identical. Identical values can stand only once. Among all 200,000 compounds or so, about 4,500 (2.2%) were called active. The inconclusive results got no clear call from the source; some entries with a clear call stand among them for comparison. Calls follow the shape of the dose curve; as a rule, active = well fitted inhibition curve with a large enough effect; inconclusive = small, poorly fitted or top-dose-only effect, or effect the other way; inactive = flat fitted curve, though single readings scatter. Potencies beside an inconclusive call are fits to weak or partial responses and may not hold up. A structure can be active in one record and inactive in another.

What follows are compounds tested against Cruzipain (Trypanosoma cruzi) (UniProt P25779) (assay: qHTS Assay for Promiscuous and Specific Inhibitors of Cruzain (without detergent)). Details: purified cruzain, Z-FR-AMC fluorescence, no detergent.
Chain of UniProt P25779 (P25779 whole entry, looked up): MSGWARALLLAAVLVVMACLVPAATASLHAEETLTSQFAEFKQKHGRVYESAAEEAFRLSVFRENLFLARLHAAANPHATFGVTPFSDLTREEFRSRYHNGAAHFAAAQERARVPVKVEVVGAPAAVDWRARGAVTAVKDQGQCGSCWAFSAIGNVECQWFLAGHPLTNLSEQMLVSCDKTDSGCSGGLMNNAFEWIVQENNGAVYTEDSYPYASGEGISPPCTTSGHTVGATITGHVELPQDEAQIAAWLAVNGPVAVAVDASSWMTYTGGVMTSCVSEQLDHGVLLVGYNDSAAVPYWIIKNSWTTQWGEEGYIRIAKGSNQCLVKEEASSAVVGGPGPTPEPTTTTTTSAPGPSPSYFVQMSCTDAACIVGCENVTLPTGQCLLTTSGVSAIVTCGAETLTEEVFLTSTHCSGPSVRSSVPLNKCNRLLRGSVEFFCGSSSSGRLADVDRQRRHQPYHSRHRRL
In short: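 Detergent-free condition (0.00005% Triton X-100) in acetate buffer pH 5.5 with DTT. 1.5 nM enzyme and compound were pre-mixed 15 min, then 2 uM Z-FR-AMC substrate added; reaction progress from fluorescence change between first and third reads (60 s).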
Also: nearly all actives have a fitted effect of over 40% in size.
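For max response, negative = inhibition in this document: plate controls were enzyme without inhibitor for no effect and buffer without enzyme for full effect.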
Potency is read from the fitted curve at half-maximal effect; tags tell the direction and shape of the fitted curve.

`Cc1sc2nc(SCC(=O)N(CCO)CCO)n(C3CCCCC3)c(=O)c2c1C` was tested. Which Potency did it give?
Its Potency is inconclusive: 31.6 µM [activator, single point].

`CCc1cccc2sc(N3CCN(C(=O)C4CC4)CC3)nc12` was tested. Which Potency did it give?
Its Potency is inconclusive: 31.6 µM [activator, single point].

How did the Potency turn out when `COc1ccc(/C=C/c2nc(N)nc(-c3ccccc3O)n2)cc1OC` was run?
Its Potency is inconclusive: 31.6 µM [activator, partial curve].

For `Cc1ccc2cccc(NC(=O)c3cccc4ccccc34)c2n1`, which Potency is on record?
Its Potency is inconclusive: 39.8 µM [inhibitor, single point].

For `COc1ccc(NCc2ccccc2-c2nnc(-c3ccccc3)o2)cc1Cl`, which max response, negative = inhibition is on record?
Its max response, negative = inhibition is inactive: -0.617%.

With `COC(=O)c1ccc(C(=O)OC)c(NC(=O)N2c3ccccc3Sc3ccccc32)c1` as the compound, how does the Potency read?
The Potency was inconclusive: 31.6 µM [inhibitor, single point].

With `CN(C/C=C\c1ccccc1)Cc1cccc2ccccc12` as the compound, how does the max response, negative = inhibition read?
The max response, negative = inhibition was inactive: -16.3%.

With `CCOc1ccccc1N(C(=O)Cn1nnnc1-c1ccc(C)o1)C(CC)C(=O)NC(C)(C)C` (stereo not drawn) as the compound, how does the Potency read?
Its Potency is inconclusive: 39.8 µM [activator, single point].

For `Cc1ccc(CNc2ncnc3c2c(-c2ccccc2)cn3-c2cccc(Cl)c2)cc1`, which max response, negative = inhibition is on record?
Its max response, negative = inhibition is inactive: 3.27%.

How did the Potency turn out when `CC(=O)c1cccc(NC(=O)C(Sc2ncnc3ccccc23)c2ccccc2)c1` (stereo not drawn) was run?
Its Potency is inconclusive: 25.1 µM [activator, single point].

For `N#Cc1sc2nc(-c3cccs3)cc(-c3ccccc3)c2c1N`, which Potency is on record?
Its Potency is active: 15.8 µM.

With `c1ccc(C(c2cccs2)c2c[nH]c3ccccc23)cc1` (stereo not drawn) as the compound, how does the Potency read?
The Potency was inconclusive: 39.8 µM [activator, single point].

With `CCCn1c(C)cc(C(=O)CSc2nc3ccccc3c(=O)n2Cc2ccco2)c1C` as the compound, how does the max response, negative = inhibition read?
The max response, negative = inhibition was inactive: -21.2%.

For `CCn1c(CNC(=O)c2cccs2)nnc1SCC(=O)Nc1ccc(Cl)cc1`, which Potency is on record?
Its Potency is inconclusive: 0.0398 µM [activator, full curve, poor fit].

How did the Potency turn out when `Cc1c(C(=O)NCc2ccc(Cl)cc2)sc2nc3n(c(=O)c12)CCCC3` was run?
Its Potency is inconclusive: 39.8 µM [activator, single point].

Which Potency does the source give for `CCOc1ccc(CNC(=O)c2ccc(NC(=O)c3nsc4ccccc34)cc2)cc1` here?
The Potency was inconclusive: 39.8 µM [inhibitor, single point].

How did the Potency turn out when `Cc1c(Br)c([N+](=O)[O-])nn1CC(=O)Nc1sc2c(c1C(=O)OC(C)C)CCC(C)C2` (stereo not drawn) was run?
The Potency was active: 15.8 µM.

Which Potency does the source give for `CCn1c(NC(=O)Nc2cccc(C)c2C)cc2sccc21` here?
The Potency was active: 25.1 µM.

`O=C(Cc1cccs1)NCCSc1c(-c2ccc(Cl)cc2)[nH]c2ccccc12` was tested. Which Potency did it give?
Its Potency is inconclusive: 39.8 µM [inhibitor, single point].

Which Potency does the source give for `Cn1c(-c2cccc(OCc3ccccc3)c2)nc2c1c(=O)[nH]c(=O)n2Cc1ccccc1` here?
The Potency was active: 7.94 µM.

With `CCOc1ccc(-c2noc(-c3ccncc3)n2)cc1OCC` as the compound, how does the Potency read?
Its Potency is inconclusive: 20 µM [activator, single point].

`O=C(Cn1c(=O)sc2ccccc21)Nc1nc2c(s1)CCCC2` was tested. Which Potency did it give?
Its Potency is inconclusive: 25.1 µM [inhibitor, single point].

For `Cc1ccc(-n2nc3c(c2NC(=O)/C=C\c2ccc4c(c2)OCO4)CSC3)c(C)c1`, which Potency is on record?
Its Potency is active: 25.1 µM.

Which Potency does the source give for `COc1ccc(-c2cc(C(=O)Nc3cc(C)ccc3O)no2)cc1OC` here?
The Potency was inconclusive: 10 µM [activator, partial curve].

`COC(=O)c1cc2occc2n1CC(=O)Nc1cccc(SC)c1` was tested. Which Potency did it give?
The Potency was inconclusive: 39.8 µM [inhibitor, single point].

With `COC(=O)c1ccccc1NC(=O)c1noc2c1CSc1ccccc1-2` as the compound, how does the max response, negative = inhibition read?
The max response, negative = inhibition was inactive: -2.49%.

With `COc1cccc(C(C(=O)NC(C)(C)C)N(C(=O)CCC(=O)Nc2cc(C)on2)C(C)(C)C)c1OC` (stereo not drawn) as the compound, how does the Potency read?
The Potency was inconclusive: 31.6 µM [activator, single point].

For `Cc1ccc(N2CC(c3nnc(NC(=O)c4ccco4)s3)CC2=O)cc1Cl` (stereo not drawn), which max response, negative = inhibition is on record?
The max response, negative = inhibition was inactive: -4.84%.

`COC(=O)[C@@]1(Cc2ccc(OC)cc2)[C@H]2c3cc(C(=O)N(C)C)n(CCc4c[nH]c5ccc(O)cc45)c3C[C@H]2CN1C(=O)c1ccccc1` was tested. Which Potency did it give?
Its Potency is inconclusive: 39.8 µM [activator, single point].

With `Cc1ccc(C)c2sc(NC(=O)c3ccc(N4CCCCC4)c([N+](=O)[O-])c3)nc12` as the compound, how does the Potency read?
The Potency was active: 7.94 µM.

How did the Potency turn out when `Cc1ccc(C(=O)NC(=S)Nc2ccc(-c3cc4ccccc4oc3=O)cc2)c(C)c1` was run?
Its Potency is inconclusive: 7.94 µM [inhibitor, full curve, poor fit].

With `CCOC(=O)c1c(N)n(-c2ccccc2CC)c2nc3ccccc3nc12` as the compound, how does the max response, negative = inhibition read?
The max response, negative = inhibition was inactive: -2.88%.

With `O=C(CN1C(=O)CSc2ccccc21)Nc1ccc2c(c1)OCCO2` as the compound, how does the Potency read?
Its Potency is inconclusive: 31.6 µM [inhibitor, single point].

Which Potency does the source give for `CCN1CCN(C(c2cccc(F)c2)c2c(O)cc(C)n(CCOC)c2=O)CC1` (stereo not drawn) here?
Its Potency is inconclusive: 25.1 µM [activator, single point].

For `CCOC(=O)CNC(=O)O[C@@H]1C(=O)c2cc(OC)ccc2O[C@H]1c1cccc(OC)c1`, which max response, negative = inhibition is on record?
The max response, negative = inhibition was inactive: -0.466%.

How did the max response, negative = inhibition turn out when `COc1ccc(C)cc1Nc1nc2ccccc2c2nnc(C)n12` was run?
The max response, negative = inhibition was inactive: -0.388%.

How did the Potency turn out when `C=CC[n+]1c(-c2ccc(C)cc2)csc1NNC(=O)Nc1ccccc1` was run?
Its Potency is inconclusive: 39.8 µM [inhibitor, single point].

Which Potency does the source give for `Cc1ccc(NC(=O)C(=O)NCc2ccc(/C=N/NC(=O)c3c(C)nc4ccccn34)o2)cc1` here?
Its Potency is inconclusive: 25.1 µM [activator, single point].

Which Potency does the source give for `CNC(=S)N(CCc1c(C)[nH]c2ccc(Cl)cc12)Cc1cc(OC)c(OC)c(OC)c1` here?
The Potency was inconclusive: 20 µM [activator, partial curve].

With `COc1ccc(N(CC(=O)N2CCc3ccccc3C2)S(=O)(=O)c2c(C)nn(C)c2C)cc1` as the compound, how does the Potency read?
Its Potency is inconclusive: 25.1 µM [activator, partial curve].

With `CSc1ccc(C2c3[nH]c4ccccc4c3CCN2C(=O)CCc2ccccc2)cc1` (stereo not drawn) as the compound, how does the Potency read?
The Potency was inconclusive: 31.6 µM [inhibitor, single point].

For `CCc1ccc2c(c1)cc(CN(C(=S)Nc1ccc(Cl)cc1)C1CC1)c1nnnn12`, which Potency is on record?
The Potency was inconclusive: 12.6 µM [inhibitor, single point].

`Oc1ccc(Cc2nccc3cc(O)c(O)cc23)cc1O` was tested. Which max response, negative = inhibition did it give?
The max response, negative = inhibition was inactive: 2.27%.

For `CN(C)C(=O)n1nnnc1Cc1ccc(-c2ccccc2)cc1`, which max response, negative = inhibition is on record?
The max response, negative = inhibition was inactive: -1.66%.

How did the Potency turn out when `CCn1c(=O)c2cc(C(=O)N(CCCOC(C)C)Cc3ccco3)sc2c2ccccc21` was run?
Its Potency is inconclusive: 31.6 µM [activator, single point].

Which Potency does the source give for `CC1CCCCN1S(=O)(=O)c1ccc(S(=O)(=O)N2CCN(c3ccc(F)cc3)CC2)cc1` (stereo not drawn) here?
Its Potency is inconclusive: 31.6 µM [inhibitor, single point].

For `COc1ccc(N=Cc2nc(-c3ccco3)oc2O)cc1`, which Potency is on record?
The Potency was inconclusive: 25.1 µM [inhibitor, partial curve].

`Cc1ccc2nc(-c3ccc(NC(=O)COC(=O)c4ccc([N+](=O)[O-])o4)cc3)sc2c1` was tested. Which Potency did it give?
The Potency was active: 15.8 µM.

`CC(=O)c1cccc(NC(=O)Cn2c(=O)c(CNc3ccc(C)cc3)cc3cc4c(cc32)OCCO4)c1` was tested. Which Potency did it give?
The Potency was inconclusive: 25.1 µM [inhibitor, single point].

With `Cc1ccc(C(=O)Nc2ccc(Br)cc2)cc1S(=O)(=O)N1CCOCC1` as the compound, how does the max response, negative = inhibition read?
The max response, negative = inhibition was inactive: -0.407%.

With `Cc1ccc(-c2csc(NC(=S)NC(=O)c3cccs3)n2)cc1` as the compound, how does the Potency read?
Its Potency is active: 15.8 µM.

For `COC(=O)c1ccccc1NC(=O)c1ccc(-c2ccccc2F)o1`, which Potency is on record?
Its Potency is inconclusive: 31.6 µM [inhibitor, single point].

For `Cc1ccc(-c2nn3c(-c4cccc(Cl)c4)nnc3s2)cc1`, which Potency is on record?
Its Potency is inconclusive: 25.1 µM [activator, single point].

How did the max response, negative = inhibition turn out when `c1csc(CN2CCOCC2)c1` was run?
The max response, negative = inhibition was inactive: 1.59%.

Which Potency does the source give for `Cc1c(C(=O)N(C)Cc2ccccc2)oc2ccc(S(=O)(=O)N3CCCC3)cc12` here?
Its Potency is inconclusive: 25.1 µM [activator, single point].

With `CCc1cc2c(=O)[nH]c(Cc3ccccc3)nc2s1` as the compound, how does the Potency read?
Its Potency is inconclusive: 39.8 µM [inhibitor, single point].

`Cc1c(C(=O)N2CCC(C)CC2)c(S(=O)(=O)NCc2ccccc2)c(C)n1C` was tested. Which max response, negative = inhibition did it give?
The max response, negative = inhibition was inactive: -5.48%.

Which max response, negative = inhibition does the source give for `C1CCCC1` here?
Its max response, negative = inhibition is inactive: 0.985%.

With `COC(=O)c1sccc1S(=O)(=O)N(CC(=O)NCc1ccccc1)c1ccccc1` as the compound, how does the Potency read?
The Potency was inconclusive: 25.1 µM [inhibitor, single point].

For `COc1ccc(C(=O)c2ccc(Br)cc2)cc1`, which Potency is on record?
The Potency was inconclusive: 39.8 µM [activator, single point].

How did the Potency turn out when `Cc1ccc(CNC(=O)CSc2ncc(S(=O)(=O)c3ccc(Br)cc3)c(=O)[nH]2)cc1` was run?
Its Potency is inconclusive: 31.6 µM [activator, single point].

`COc1cc(C2C(N3C(=O)c4ccccc4C3=O)C(=O)N2c2cccc(C)c2)cc(OC)c1OC` (stereo not drawn) was tested. Which Potency did it give?
Its Potency is inconclusive: 25.1 µM [activator, single point].

Which max response, negative = inhibition does the source give for `Cc1ncoc1C(=O)Nc1ccccc1-c1ccccc1` here?
Its max response, negative = inhibition is inactive: 5.15%.

`Cc1ccc(C(=O)C2CCN(CC(=O)Nc3ccc4c(c3)OCCO4)CC2)cc1` was tested. Which Potency did it give?
The Potency was inconclusive: 15.8 µM [inhibitor, partial curve].

Which Potency does the source give for `CC1=NCCc2c1[nH]c1cc(O)ccc21` here?
Its Potency is active: 12.6 µM.

What about the max response, negative = inhibition of the same compound?
The max response, negative = inhibition was inactive: -11.1% and inactive: -26%.

`COc1ccc2nc3oc(C(=O)Nc4ccc(OC)c(OC)c4)cc3cc2c1` was tested. Which Potency did it give?
Its Potency is inconclusive: 39.8 µM [activator, single point].

`COc1ccc(N=c2oc3ccc(OC)cc3cc2-c2nc3ccccc3[nH]2)cc1` was tested. Which Potency did it give?
Its Potency is inconclusive: 5.01 µM [activator, full curve, poor fit].
